Reference: PubChem BioAssay AID1569 (National Center for Advancing Translational Sciences (NCATS), 2009)
The shares of active, inactive and inconclusive entries below differ from those in the screen. Where the call is inconclusive, the potency comes from a doubtful curve fit. Calls of active or inactive are those of the source. The call rests on the fitted dose curve; in most records, active means well fitted inhibition curve with a large enough effect; inconclusive means small, poorly fitted or top-dose-only effect, or effect the other way, or another doubt; inactive means no such curve, though single readings can be large or run the other way.

Test: Confirmation Concentration-Response Assay for lipid storage modulators; further: nearly all actives have a fitted effect of over 80% in size
Conditions: Drosophila S3 cells, lipid droplet BODIPY/CellTracker ratio, 18-24 h; series mostly up to 46.1 µM
Summary of the method: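 Cells at 5,000/well received compound as a titration plus oleic acid (added as 400 uM solution) and were incubated 18–24 h at 24 °C. BODIPY 493/503 lipid signal and CellTracker Red cell count were read by 488-nm laser-scanning cytometry. Activity was normalised to 20 uM Triacsin C.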
Potency means the concentration at half of the fitted maximal effect; tags describe the fitted curve by direction and shape.

With Cn1cc(CNCc2ccc(OC(F)(F)F)cc2)c(-c2ccc3c(c2)OCCO3)n1 as the compound, how does the Potency read?
The Potency was active: 6.28 µM.

Which Potency does the source give for CCOc1ccc(CCNC(=O)c2c(C)nn(-c3ccccc3)c2Cl)cc1OCC here?
The Potency was inconclusive: 4.45 µM [activator, full curve, poor fit].

For Cc1ccc2nc(SCC(=O)NCc3ccccc3Cl)nc(=O)n2c1, which Potency is on record?
Its Potency is inconclusive: 6.28 µM [activator, partial curve].

For Cc1c(Cc2ccc3c(c2)OCO3)sc(NC(=O)C(C)(C)C)c1C#N, which Potency is on record?
Its Potency is inconclusive: 1.58 µM [activator, full curve].

With COc1ccc(CCNC(=O)CSc2nc3[nH]ncc3c(=O)n2-c2ccc(Cl)cc2Cl)cc1OC as the compound, how does the Potency read?
The Potency was “inactive”.

With Cc1nc2cc(NC(=O)NCc3ccc4c(c3)OCO4)ccc2o1 as the compound, how does the Potency read?
Its Potency is inconclusive: 8.88 µM [activator, partial curve, poor fit].

Which Potency does the source give for O=C(Nc1ccccc1-c1nc2ccccc2s1)c1ccc(Br)o1 here?
Its Potency is inconclusive: 0.791 µM [activator, full curve].

Which Potency does the source give for COc1ccccc1NC(=O)NC1(C(=O)N2CCC(C)CC2)CCCCC1 here?
Its Potency is “inactive”.

With Cc1cc(C)c2nc(C(F)(F)F)nc(NCCCN3CCCC3=O)c2c1 as the compound, how does the Potency read?
Its Potency is inconclusive: 3.53 µM [activator, partial curve].

Which Potency does the source give for COc1ccc(NC(=O)NC2(C(=O)N3CCCC(C)C3)CCCCC2)cc1 (configuration not stated) here?
Its Potency is “inactive”.

For COc1ccc(C(=O)Nc2ccccc2C(=O)NC(C)C)cc1OC, which Potency is on record?
The Potency was inconclusive: 12.5 µM [activator, partial curve].

Which Potency does the source give for COc1ccc(CCNC(=O)c2cccs2)cc1OC here?
Its Potency is inconclusive: 15.8 µM [activator, partial curve, poor fit].
